Source: US9428499B2, “Heterocyclyl compounds as MEK inhibitors” (LUPIN LIMITED, priority 2012, dated 2016)
Some results were stated once for a whole list of compounds, not compound by compound.

Biological target: MEK enzyme
Assay: MEK kinase inhibition (KinaseGlo luminescence)
Assay type: biochemical
Conditions: ERK substrate, 1% DMSO, read-out: MEK kinase inhibition activity of the compounds (IC50)

Row | SMILES | IC50
1 | Cc1c(=O)n(C)c(Nc2ccc(I)cc2F)c2c(=O)n(C)c(=O)n(-c3cccc(CC(=O)NC4CC4)c3)c12 [Compound 58, N-cyclopropyl-2-(3-(5-((2-fluoro-4-iodophenyl)amino)-3,6,8-trimethyl-2,4,7-trioxo-3,4,6,7-tetrahydropyrido[4,3-d]pyrimidin-1(2H)-yl)phenyl)acetamide] | 1 to 499 nM
2 | Cc1c(=O)n(C)c(Nc2ccc(I)cc2F)c2c(=O)[nH]c(=O)n(-c3cccc(C(=O)NC4(C(N)=O)CC4)c3)c12 [Compound 12, N-(1-carbamoylcyclopropyl)-3-(5-((2-fluoro-4-iodophenyl)amino)-6,8-dimethyl-2,4,7-trioxo-3,4,6,7-tetrahydropyrido[4,3-d]pyrimidin-1(2H)-yl)benzamide] | 1 to 499 nM
3 | Cc1c(=O)n(C)c(Nc2ccc(I)cc2F)c2c(=O)n(C)c(=O)n(-c3cccc(C(=O)NC4(CO)CC4)c3)c12 [Compound 53, 3-(5-((2-fluoro-4-iodophenyl)amino)-3,6,8-trimethyl-2,4,7-trioxo-3,4,6,7-tetrahydropyrido[4,3-d]pyrimidin-1(2H)-yl)-N-(1-(hydroxymethyl)cyclopropyl)benzamide] | 1600 to 3000 nM
4 | Cc1c(=O)n(C)c(Nc2ccc(I)cc2F)c2c(=O)n(C)c(=O)n(-c3cccc(C(=O)NC4CC4)c3)c12 [Compound 54, N-cyclopropyl-3-(5-((2-fluoro-4-iodophenyl)amino)-3,6,8-trimethyl-2,4,7-trioxo-3,4,6,7-tetrahydropyrido[4,3-d]pyrimidin-1(2H)-yl)benzamide] | 1 to 499 nM
5 | Cc1c(=O)n(C)c(Nc2ccc(I)cc2F)c2c(=O)[nH]c(=O)n(-c3cccc(C(O)C(N)=O)c3)c12 (stereo not shown) [Compound 14, 2-(3-(5-((2-fluoro-4-iodophenyl)amino)-6,8-dimethyl-2,4,7-trioxo-3,4,6,7-tetrahydropyrido[4,3-d]pyrimidin-1(2H)-yl)phenyl)-2-hydroxyacetamide] | 1 to 499 nM
6 | Cc1c(=O)n(C)c(Nc2ccc(I)cc2F)c2c(=O)n(C3CC3)c(=O)n(-c3cccc(OCC(N)=O)c3)c12 [Compound 35, 2-(3-(3-cyclopropyl-5-((2-fluoro-4-iodophenyl)amino)-6,8-dimethyl-2,4,7-trioxo-3,4,6,7-tetrahydropyrido[4,3-d]pyrimidin-1(2H)-yl)phenoxy)acetamide] | 1 to 499 nM
7 | Cc1c(=O)n(C)c(Nc2ccc(I)cc2F)c2c(=O)[nH]c(=O)n(-c3cccc(CC(=O)N(C)C)c3)c12 [Compound 10, 2-(3-(5-((2-fluoro-4-iodophenyl)amino)-6,8-dimethyl-2,4,7-trioxo-3,4,6,7-tetrahydropyrido[4,3-d]pyrimidin-1(2H)-yl)phenyl)-N,N-dimethylacetamide] | 1 to 499 nM
8 | CNC(=O)COc1cccc(-n2c(=O)n(C)c(=O)c3c(Nc4ccc(I)cc4F)n(C)c(=O)c(C)c32)c1 [Compound 60, 2-(3-(5-((2-fluoro-4-iodophenyl)amino)-3,6,8-trimethyl-2,4,7-trioxo-3,4,6,7-tetrahydropyrido[4,3-d]pyrimidin-1(2H)-yl)phenoxy)-N-methylacetamide] | 1 to 499 nM
9 | Cc1c(=O)n(C)c(Nc2ccc(I)cc2F)c2c(=O)[nH]c(=O)n(-c3cccc(C(=O)N4CCNCC4)c3)c12 [Compound 23, 5-((2-fluoro-4-iodophenyl)amino)-6,8-dimethyl-1-(3-(piperazine-1-carbonyl)phenyl)pyrido[4,3-d]pyrimidine-2,4,7(1H,3H,6H)-trione] | 1 to 499 nM
10 | Cc1c(=O)n(C)c(Nc2ccc(I)cc2F)c2c(=O)n(CCO)c(=O)n(-c3cccc(C(=O)NC4CC4)c3)c12 [Compound 55, N-cyclopropyl-3-(5-((2-fluoro-4-iodophenyl)amino)-3-(2-hydroxyethyl)-6,8-dimethyl-2,4,7-trioxo-3,4,6,7-tetrahydropyrido[4,3-d]pyrimidin-1(2H)-yl)benzamide] | 500 to 1500 nM
11 | Cc1c(=O)n(C)c(Nc2ccc(I)cc2F)c2c(=O)[nH]c(=O)n(-c3cccc(C(=O)NC4CC4)c3)c12 [Compound 2, N-cyclopropyl-3-(5-((2-fluoro-4-iodophenyl)amino)-6,8-dimethyl-2,4,7-trioxo-3,4,6,7-tetrahydropyrido[4,3-d]pyrimidin-1(2H)-yl)benzamide] | 1 to 499 nM
12 | Cc1c(=O)n(C)c(Nc2ccc(I)cc2F)c2c(=O)[nH]c(=O)n(-c3cccc(C(=O)N4CCC(O)C4)c3)c12 (stereo not shown) [Compound 22, 5-((2-fluoro-4-iodophenyl)amino)-1-(3-(3-hydroxypyrrolidine-1-carbonyl)phenyl)-6,8-dimethylpyrido[4,3-d]pyrimidine-2,4,7(1H,3H,6H)-trione] | 1600 to 3000 nM
13 | Cc1c(=O)n(C)c(Nc2ccc(I)cc2F)c2c(=O)[nH]c(=O)n(-c3cccc(C(=O)N4CCS(=O)(=O)C4)c3)c12 [Compound 17, 1-(3-(1,1-dioxidothiazolidine-3-carbonyl)phenyl)-5-((2-fluoro-4-iodophenyl)amino)-6,8-dimethylpyrido[4,3-d]pyrimidine-2,4,7(1H,3H,6H)-trione] | 1 to 499 nM
14 | Cc1c(=O)n(C)c(Nc2ccc(I)cc2F)c2c(=O)n(C)c(=O)n(-c3cccc(CC(=O)N(C)C)c3)c12 [Compound 44, 2-(3-(5-((2-fluoro-4-iodophenyl)amino)-3,6,8-trimethyl-2,4,7-trioxo-3,4,6,7-tetra hydropyrido[4,3-d]pyrimidin-1(2H)-yl)phenyl)-N,N-dimethylacetamide] | 1 to 499 nM
15 | Cc1c(=O)n(C)c(Nc2ccc(I)cc2F)c2c(=O)n(C)c(=O)n(-c3cccc(CC(N)=O)c3)c12 [Compound 42, 2-(3-(5-((2-fluoro-4-iodophenyl)amino)-3,6,8-trimethyl-2,4,7-trioxo-3,4,6,7-tetrahydropyrido[4,3-d]pyrimidin-1(2H)-yl)phenyl)acetamide] | 500 to 1500 nM
16 | Cc1c(=O)n(C)c(Nc2ccc(I)cc2F)c2c(=O)[nH]c(=O)n(-c3cccc(OCC(=O)NC4CC4)c3)c12 [Compound 6, N-cyclopropyl-2-(3-(5-((2-fluoro-4-iodophenyl)amino)-6,8-dimethyl-2,4,7-trioxo-3,4,6,7-tetrahydropyrido[4,3-d]pyrimidin-1(2H)-yl)phenoxy)acetamide] | 1 to 499 nM
17 | Cc1c(=O)n(C)c(Nc2ccc(I)cc2F)c2c(=O)[nH]c(=O)n(-c3cccc(C(=O)N4CCN(C)CC4)c3)c12 [Compound 21, 5-((2-fluoro-4-iodophenyl)amino)-6,8-dimethyl-1-(3-(4-methylpiperazine-1-carbonyl)phenyl)pyrido[4,3-d]pyrimidine-2,4,7(1H,3H,6H)-trione] | 1 to 499 nM
18 | Cc1c(=O)n(C)c(Nc2ccc(I)cc2F)c2c(=O)n(C)c(=O)n(-c3cccc(C(=O)NC4CCOC4)c3)c12 (stereo not shown) [Compound 51, 3-(5-((2-fluoro-4-iodophenyl)amino)-3,6,8-trimethyl-2,4,7-trioxo-3,4,6,7-tetrahydropyrido[4,3-d]pyrimidin-1(2H)-yl)-N-(tetrahydrofuran-3-yl)benzamide] | 500 to 1500 nM
19 | CCn1c(=O)c2c(Nc3ccc(I)cc3F)n(C)c(=O)c(C)c2n(-c2cccc(C(=O)NC3CC3)c2)c1=O [Compound 62, N-cyclopropyl-3-(3-ethyl-5-((2-fluoro-4-iodophenyl)amino)-6,8-dimethyl-2,4,7-trioxo-3,4,6,7-tetrahydropyrido[4,3-d]pyrimidin-1(2H)-yl)benzamide] | 1 to 499 nM
